According to PubChem BioAssay AID686978 (National Center for Advancing Translational Sciences (NCATS), 2013):
The campaign covered roughly 420,000 compounds. About 64,000 (15%) were called active. This list was built around the results that the source calls inconclusive (neither active nor inactive); the mix of calls is not that of the screen. Calls follow the shape of the dose curve; as a rule, active = well fitted inhibition curve with a large enough effect; inconclusive = small, poorly fitted or top-dose-only effect; inactive = flat fitted curve, though single readings scatter. No potency is given beside an inconclusive call; the fits are too rough.

Assay: qHTS for Inhibitors of human tyrosyl-DNA phosphodiesterase 1 (TDP1): qHTS in cells in absence of CPT; also: nearly all actives have a fitted effect of over 55% in size
Conditions: DT40 Tdp1-/- hTDP1 cells, no CPT, ATP luminescence, 48 h; activity change, negative = growth inhibition: at 46.2 µM (top of the series) unless noted
Outline: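 DT40 Tdp1-/-;hTDP1 cells, no CPT (DMSO vehicle only), 400 cells/well; compounds pin-transferred; ≥48 hr, 37 °C; CellTiter-Glo 30 min RT dark, luminescence read.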
% is scaled to controls: 0 for no effect and ±100 for the full control effect; potency is read from the fitted curve at half-maximal effect; tags tell the direction and shape of the fitted curve.

Row | Structure (SMILES) | Potency | activity change, negative = growth inhibition
1 | COC(=O)C1=C(C)N(C)C(C)=C(C(=O)OC)C1c1ccsc1 | inconclusive [inhibitor, single point] | –
2 | CCOC(=O)c1ccc(NC(=O)CN(Cc2ccc(C)cc2)S(=O)(=O)c2ccc(C)cc2)cc1 | active: 13 µM | –
3 | CCc1nnc2n1N=C(c1ccc([N+](=O)[O-])cc1)CS2 | inactive | –
4 | CCc1ccc2[nH]c(=O)c(CN(Cc3ccco3)C(=S)NCC3CCCO3)cc2c1 (configuration not stated) | inconclusive [inhibitor, single point] | –
5 | CCOc1ccc2[nH]c(=O)c(C(c3nnnn3CC3CCCO3)N3CCc4ccccc4C3)cc2c1 (configuration not stated) | active: 23.1 µM | –
6 | CC(C)Oc1ccc(CNC(=O)CN2C(=O)CCn3nc(-c4cn(C)c5ccccc45)cc32)cc1 | inconclusive [inhibitor, partial curve, poor fit] | –
7 | CCOc1nnnc2c1sc1nc(N3CCOCC3)c3c(c12)CCCC3 | inconclusive [inhibitor, single point] | –
8 | CCc1c(Cl)nc(N)nc1Nc1ccccc1C | inconclusive [inhibitor, single point] | –
9 | O=C(c1cc(C(=O)N2CCOCC2)c2nc3ccccc3n2c1)c1ccccc1O | inconclusive [inhibitor, single point] | –
10 | CC#CCN1c2ccccc2[C@]23C[C@@H](C(=O)OC)N(C(=O)c4cc(C)oc4C)C2=NC(C(=O)OC)=C(C(=O)OC)[C@H]13 | – | inconclusive: -30.6% [inhibitor]
11 | COc1ccc(CC(=O)N(C)Cc2ccc(OC(F)F)cc2)cc1S(=O)(=O)N1CCOCC1 | inconclusive [inhibitor, single point] | –
12 | CCOP(=O)(OCC)c1nc(/C=C/c2ccccc2)oc1NCc1ccccc1 | inconclusive [inhibitor, partial curve] | –
13 | O=C1N[C@@H](Cc2ccccc2)COC(=O)[C@H](Cc2ccc(F)cc2)C/C=C\C[C@H]1CC(=O)N(CCO)Cc1ccccc1 | active: 8.2 µM | –
14 | CC(C)Sc1nc(SCC(=O)NCc2ccco2)c2c3c(sc2n1)COC(C)(C)C3 | inconclusive [inhibitor, single point] | –
15 | N#CC1=C(SCc2ccc(C#N)cc2)N=C(N)C(c2nc(-c3ccccc3)cs2)C12CCCCC2 (configuration not stated) | inconclusive [inhibitor, single point] | –
16 | O=C(Cn1ccc(NC(=O)OCc2ccccc2)nc1=O)NCCN1CCOCC1 | inactive | –
17 | Cc1cc(NC(=O)CCc2ccc(C)o2)no1 | inconclusive [inhibitor, full curve, poor fit] | –
